Among all 420,000 compounds or so, about 64,000 (15%) were called active. Inconclusive results, whose numbers are uncertain, are shown with a selection of clear calls. Calls follow the shape of the dose curve; as a rule, active = well fitted inhibition curve with a large enough effect; inconclusive = small, poorly fitted or top-dose-only effect; inactive = flat fitted curve, though single readings scatter. No potency is given beside an inconclusive call; the fits are too rough.
Assay: qHTS for Inhibitors of human tyrosyl-DNA phosphodiesterase 1 (TDP1): qHTS in cells in absence of CPT; also: nearly all actives have a fitted effect of over 55% in size
Details: DT40 Tdp1-/- hTDP1 cells, no CPT, ATP luminescence, 48 h; series mostly up to 46.2 µM
Summary of the method: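 Compound effects on proliferation are scored in DT40 Tdp1-/-;hTDP1 cells in the absence of CPT. ATP levels (CellTiter-Glo luminescence) are recorded after a ≥48 hr, 37 °C incubation.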
Potency is read from the fitted curve at half-maximal effect; tags tell the direction and shape of the fitted curve.

Compound | Potency
CCOC(=O)C(C(=O)OCC)C(=O)c1cccc2ccc3ccccc3c12 | inactive
Cc1ccccc1CNC(=O)CCCn1c(=O)c2cccn2c2cccnc21 | inconclusive [inhibitor, single point]
CN(C)CCCNc1cc(C(C)(C)C)nc2c(-c3ccc(Cl)cc3)cnn12 | inconclusive [inhibitor, single point]
CC(C)(C=O)C1=CC(=O)c2ccccc2C1=O | active: 0.411 µM
Cc1sc2ncnc(NCC(c3ccco3)N(C)C)c2c1C (stereo not given) | inconclusive [inhibitor, single point]
Cc1cccc(C)c1N(CCCc1cccnc1)C(=O)C(C)N (stereo not given) | inconclusive [inhibitor, full curve, poor fit]
COc1ccc(S(=O)(=O)NC(C(=O)OCC(=O)Nc2ccc(N3CCOCC3)cc2)C(C)C)cc1 (stereo not given) | inconclusive [inhibitor, single point]
CCOC(=O)[C@]12CCC=C1N(Cc1ccco1)C(=O)[C@H](CC(=O)NCCc1ccccc1OC)C2 | inconclusive [inhibitor, single point]
COC(=O)Cc1ccc(O)c(N)c1 | inconclusive [inhibitor, single point]
CC(OC(=O)CCCCCN=C1NS(=O)(=O)c2ccccc21)C(=O)Nc1cc(Cl)cc(Cl)c1 (stereo not given) | inconclusive [inhibitor, partial curve]
COc1ccc(CCNc2nc(N3CCCCC3)nc(N3CCCCC3)n2)cc1OC | active: 23.1 µM
Cc1ccc(N2CC(NC(=O)c3cccs3)CC2=O)cc1C (stereo not given) | inconclusive [inhibitor, single point]
CCn1c(C)c(P(c2ccccc2)c2ccccc2)[n+]2ccccc12 | active: 1.46 µM
CCN(CC)c1ccc(NC(=O)c2nc3nc(C)cc(C(F)F)n3n2)cc1 | inconclusive [inhibitor, single point]
c1coc(C2=NC(c3ccco3)C(c3ccco3)N2)c1 (stereo not given) | inactive
CCCCOc1c(Cl)cc(C(=O)N2CCN(CC(=O)N3CCCC3)CC2)cc1OCC | inconclusive [inhibitor, single point]
CCOc1ccc(-c2nc(N)ncc2-c2ccc(OC)cc2)c(O)c1 | inconclusive [inhibitor, single point]
O=C1/C(=C\c2ccccc2)CCC/C1=C/c1ccccc1 | active: 18.4 µM
Cc1ccc(C(C)C)c(OCC(=O)N2CCN(c3ncccn3)CC2)c1 | inconclusive [inhibitor, single point]
Cc1ccc2oc3nc(C)c(C(=O)O)cc3c(=O)c2c1 | inconclusive [inhibitor, partial curve]
CCOP1(=O)C=C(C(C)(C)C)OC1c1ccc(F)cc1 (stereo not given) | inactive
CC(=O)c1ccc(N2CCN(C(=O)Cc3cccs3)CC2)cc1 | inconclusive [inhibitor, single point]
Nn1c(SCC(=O)NC2CCCc3ccccc32)nnc1-c1cccs1 (stereo not given) | inconclusive [inhibitor, single point]
Cc1ccc(Cc2nnc(SCC(=O)Nc3ccccc3)[nH]c2=O)cc1 | inactive

Compound | Potency
O=[N+]([O-])c1cc([N+](=O)[O-])c(Oc2cccc3ccccc23)cc1NN1CCCCC1 | inconclusive [inhibitor, single point]
COc1ccc(C=NNC(=O)c2ccccc2OCc2ccc(F)cc2)c(OC)c1 | inconclusive [inhibitor, single point]
Cc1ccc(NC(=S)N2CCN(S(=O)(=O)c3c(F)cccc3F)CC2)cc1C | inactive
Cc1ccc(C(=O)C2=C(O)C(=O)N(Cc3ccco3)C2c2ccc(N(C)C)cc2)o1 (stereo not given) | inconclusive [inhibitor, single point]
Cc1n[nH]c(=O)c2c(NC(=O)CSc3cc(Cl)ccc3Cl)oc(C)c12 | inactive
CCOc1ccccc1CNC(=O)c1cc2oc3ccccc3c2n1C | inconclusive [inhibitor, single point]
C/C(=N\NC(=O)Cn1ccc(C(F)(F)F)n1)c1ccc2c(c1)OCO2 | inconclusive [inhibitor, partial curve]
CN(C(=O)c1ccc(Cl)cc1)C1=CCCCC1CCC#N (stereo not given) | inconclusive [inhibitor, partial curve, poor fit]
Cc1ccc(NC(=O)c2ccoc2C)cc1C | inconclusive [inhibitor, partial curve]
CCc1ccc(C(=O)c2cn(CC(=O)Nc3ccc4c(c3)OCO4)c3ccc(OC)cc3c2=O)cc1 | inconclusive [inhibitor, single point]
CCOC(=O)C1=C(c2ccccc2)NC(SC)=C(C#N)C1c1ccco1 (stereo not given) | active: 20.6 µM
CCC(C)(C)C1CCC(=NNC(=S)Nc2ccccc2)CC1 (stereo not given) | active: 14.6 µM
COc1ccc2nc3oc(C(=O)NC4CCN(Cc5ccccc5)CC4)cc3cc2c1 | active: 17.8 µM
CC(C(=O)NC1CCCCC1)N1C(=O)c2cccc3cccc1c23 (stereo not given) | inconclusive [inhibitor, single point]
CN(C)/C=C1\C=C(c2ccccc2)OC1=O | inconclusive [inhibitor, single point]
COc1ccc(Nc2oc(-c3ccco3)nc2S(=O)(=O)c2ccc(F)cc2)cc1 | inconclusive [inhibitor, single point]
COc1ccc([C@H]2CC(=O)C=C(/C=C/Cc3ccccc3)C2)cc1 | inconclusive [inhibitor, single point]
CCN1CCN(c2ncnc3c2cnn3-c2ccc(Cl)cc2)CC1 | inconclusive [inhibitor, single point]
CCC(NC(=O)c1ccccc1O)c1ccccc1 (stereo not given) | inconclusive [inhibitor, single point]
Cn1c(C(=O)Nc2cccc(C(F)(F)F)c2)cc2c(=O)n3ccccc3nc21 | active: 9.2 µM
O=C(CCc1ccccc1)NNC(=S)NC(=O)c1ccccc1 | active: 14.6 µM
O=C(/C=N/NC(=O)c1ccc(Cl)cc1Cl)c1ccccc1 | inconclusive [inhibitor, partial curve]
CCOC(=O)CCNC(=O)N1CCCC(C(=O)c2cccc(Cl)c2)C1 (stereo not given) | inconclusive [inhibitor, single point]
O=C(CSc1nnc(-c2ccccc2Br)o1)N1CCc2ccccc2C1 | inconclusive [inhibitor, single point]

Compound | Potency
CC(=O)c1nc(N2C(=O)CC(Cc3cccc(C)c3)C2=O)sc1C (stereo not given) | inactive
N.N.O=C(O)C1(C(=O)O)CCC1.[Pt] | inactive
CCCCC(O)(CCCC)C(=O)NN(C(=O)OC)c1ccccc1 | inconclusive [inhibitor, partial curve, poor fit]
Cc1cccc(NS(=O)(=O)c2ccc(S(=O)(=O)N3CCCC3)cc2)c1 | inconclusive [inhibitor, single point]
Cc1ccccc1NC(=O)c1sc(NC(=O)C2CC2)nc1C | inconclusive [inhibitor, single point]
OC(COc1ccc2cc(Br)ccc2c1)CN1CCN(c2ccccn2)CC1 (stereo not given) | inconclusive [inhibitor, single point]
CN(CC(=O)Nc1ccc(Cl)c(Cl)c1)C(=O)CN1C(=O)NC2(CCCC2)C1=O | inconclusive [inhibitor, single point]
COc1ccc(OC)c(CNC(=O)C(C)n2c(C)c3cnn(-c4ccccc4)c(=O)c3c2C)c1 (stereo not given) | active: 11.6 µM
CCOc1ccc(NC(=O)C2CCC(CNS(=O)(=O)c3ccc(Br)s3)CC2)cc1 (stereo not given) | inconclusive [inhibitor, single point]
CC(NC(=O)CN(c1ccccc1F)S(C)(=O)=O)c1ccccc1 (stereo not given) | inactive
COc1ccc(CNC(=O)C2CCCC2)cc1 | inactive
NC(=O)c1ccc(-c2nnn(CC(=O)N(C3CCCC3)C3CCS(=O)(=O)C3)n2)cc1 (stereo not given) | inactive
CC(C)Oc1ccccc1NC(=O)CSc1nc2ccccc2c(=O)n1C | inconclusive [inhibitor, partial curve, poor fit]
O=C(CSc1ccc([N+](=O)[O-])cn1)Nc1cc(C(F)(F)F)ccc1N1CCOCC1 | inconclusive [inhibitor, partial curve]
CCOC(=O)N(C)c1ccc(C(O)(C(F)(F)F)C(F)(F)F)cc1 | inconclusive [inhibitor, partial curve, poor fit]
COc1ccc(/C(C)=N/NC(=O)c2cccc(S(=O)(=O)N3CCCC3)c2)c(O)c1 | active: 2.91 µM
COc1ccc(-c2c(C#N)c(N)nc3c2CCCC3)cc1OC | inactive
COc1ccccc1N1CCN(C(=O)c2cccc3c(=O)c(C)c(-c4ccccc4)oc23)CC1 | inconclusive [inhibitor, single point]
Cc1ccccc1NC(=O)CSc1nnc(Cc2ccccc2)c(=O)n1N | inactive
COc1ccc(CC(NC(C)=O)C(=O)NC2CCN(C(=O)c3ccc(OC)c(OC)c3)CC2)cc1OC (stereo not given) | inactive
CCOC(=O)/C=C/C(=O)Nc1ccc(S(=O)(=O)Nc2c(C)cc(C)cc2C)cc1 | active: 16.4 µM
O=C(N/C(=C\c1ccc([N+](=O)[O-])cc1)C(=O)N1CCCCC1)c1ccccc1 | inconclusive [inhibitor, single point]
